# Assay results as given in the supplement of paper PMC8728848.
# The other results are listed elsewhere or left out.
# Assays:
# Assay in all cases: glycan array binding signal (z-score within array); higher = stronger binding
# Conditions in all cases: glycan notation: IUPAC condensed, linker removed
# Gal(a1-3)Gal(b1-3)GlcNAc = molecular target: Gal(a1-3)Gal(b1-3)GlcNAc
# In short: (§1)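 Glycan array binding is given as a within-array Z-score, which can be read as non-binding when negative. The arrays, 3228 of them, came from the Consortium for Functional Glycomics database and were retained only where the protein sequence was available. Z-scores were averaged across arrays of the same protein sequence at different concentrations or buffers and across linkers.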
# [1] = molecular target: Gal(a1-3)Gal(b1-3)GlcNAc(b1-2)Man(a1-3)[Gal(a1-3)Gal(b1-3)GlcNAc(b1-2)Man(a1-6)]Man(b1-4)GlcNAc(b1-4)GlcNAc
# In short: as §1
# [2] = molecular target: Gal(a1-3)Gal(b1-3)GlcNAc(b1-3)GalNAc
# In short: as §1
# [3] = molecular target: Gal(a1-3)Gal(b1-3)GlcNAc(b1-6)GalNAc
# In short: as §1
# [4] = molecular target: Gal(a1-3)Gal(b1-3)[Fuc(a1-4)]GlcNAc(b1-2)Man(a1-3)[Gal(a1-3)Gal(b1-3)[Fuc(a1-4)]GlcNAc(b1-2)Man(a1-6)]Man(b1-4)GlcNAc(b1-4)GlcNAc
# In short: as §1
# Gal(a1-3)Gal(b1-4)Glc = molecular target: Gal(a1-3)Gal(b1-4)Glc
# In short: as §1
# Gal(a1-3)Gal(b1-4)GlcNAc = molecular target: Gal(a1-3)Gal(b1-4)GlcNAc
# In short: as §1
# [5] = molecular target: Gal(a1-3)Gal(b1-4)GlcNAc(b1-3)GalNAc
# In short: as §1
# [6] = molecular target: Gal(a1-3)Gal(b1-4)GlcNAc(b1-6)GalNAc
# In short: as §1
# [7] = molecular target: Gal(a1-3)Gal(b1-4)[Fuc(a1-3)]GlcNAc
# In short: as §1
# [8] = molecular target: Gal(a1-3)Gal(b1-4)[Fuc(a1-3)]GlcNAc(b1-2)Man(a1-3)[Gal(a1-3)Gal(b1-4)[Fuc(a1-3)]GlcNAc(b1-2)Man(a1-6)]Man(b1-4)GlcNAc(b1-4)GlcNAc
# In short: as §1
# Gal(a1-3)GalNAc = molecular target: Gal(a1-3)GalNAc
# In short: as §1
# [9] = molecular target: Gal(a1-3)[Gal(a1-4)]Gal(b1-4)GlcNAc
# In short: as §1
# [10] = molecular target: Gal(a1-4)Gal(b1-3)GlcNAc(b1-2)Man(a1-3)[Gal(a1-4)Gal(b1-3)GlcNAc(b1-2)Man(a1-6)]Man(b1-4)GlcNAc(b1-4)GlcNAc
# In short: as §1
# Gal(a1-4)Gal(b1-4)Glc = molecular target: Gal(a1-4)Gal(b1-4)Glc
# In short: as §1
# Gal(a1-4)Gal(b1-4)GlcNAc = molecular target: Gal(a1-4)Gal(b1-4)GlcNAc
# In short: as §1
# [11] = molecular target: Gal(a1-4)Gal(b1-4)GlcNAc(b1-2)Man(a1-3)[Gal(a1-4)Gal(b1-4)GlcNAc(b1-2)Man(a1-6)]Man(b1-4)GlcNAc(b1-4)GlcNAc
# In short: as §1
# [12] = molecular target: Gal(a1-4)Gal(b1-4)GlcNAc(b1-3)Gal(b1-4)Glc
# In short: as §1
# Gal(a1-4)GlcNAc = molecular target: Gal(a1-4)GlcNAc
# In short: as §1
# Gal(a1-6)Glc = molecular target: Gal(a1-6)Glc
# In short: as §1
# Gal(b1-2)Gal = molecular target: Gal(b1-2)Gal
# In short: as §1
# Gal(b1-3)Gal = molecular target: Gal(b1-3)Gal
# In short: as §1
# Gal(b1-3)Gal(b1-4)GlcNAc = molecular target: Gal(b1-3)Gal(b1-4)GlcNAc
# In short: as §1
# [13] = molecular target: Gal(b1-3)Gal(b1-4)GlcNAc(b1-2)Man(a1-3)[Gal(b1-3)Gal(b1-4)GlcNAc(b1-2)Man(a1-6)]Man(b1-4)GlcNAc(b1-4)GlcNAc
# In short: as §1
# Gal(b1-3)GalNAc = molecular target: Gal(b1-3)GalNAc
# In short: as §1
# [14] = molecular target: Gal(b1-3)GalNAc(a1-3)[Fuc(a1-2)]Gal(b1-4)Glc
# In short: as §1
# [15] = molecular target: Gal(b1-3)GalNAc(a1-3)[Fuc(a1-2)]Gal(b1-4)GlcNAc
# In short: as §1
# [16] = molecular target: Gal(b1-3)GalNAc(b1-3)Gal(a1-4)Gal(b1-4)Glc
# In short: as §1
# [17] = molecular target: Gal(b1-3)GalNAc(b1-4)Gal(b1-4)Glc
# In short: as §1
# [18] = molecular target: Gal(b1-3)GalNAc(b1-4)[Neu5Ac(a2-3)]Gal(b1-4)Glc
# In short: as §1
# Gal(b1-3)GlcNAc = molecular target: Gal(b1-3)GlcNAc
# In short: as §1
# [19] = molecular target: Gal(b1-3)GlcNAc(a1-3)Gal(b1-4)GlcNAc
# In short: as §1
# [20] = molecular target: Gal(b1-3)GlcNAc(a1-6)Gal(b1-4)GlcNAc
# In short: as §1
# [21] = molecular target: Gal(b1-3)GlcNAc(b1-2)Man(a1-3)[Gal(b1-3)GlcNAc(b1-2)Man(a1-6)]Man(b1-4)GlcNAc(b1-4)GlcNAc
# In short: as §1
# [22] = molecular target: Gal(b1-3)GlcNAc(b1-2)Man(a1-3)[Gal(b1-3)GlcNAc(b1-2)Man(a1-6)]Man(b1-4)GlcNAc(b1-4)[Fuc(a1-6)]GlcNAc
# In short: as §1
# [23] = molecular target: Gal(b1-3)GlcNAc(b1-2)Man(a1-3)[GlcNAc(b1-4)][Gal(b1-3)GlcNAc(b1-2)Man(a1-6)]Man(b1-4)GlcNAc(b1-4)GlcNAc
# In short: as §1
# [24] = molecular target: Gal(b1-3)GlcNAc(b1-2)[Gal(b1-3)GlcNAc(b1-6)]Man(a1-6)[Gal(b1-3)GlcNAc(b1-2)Man(a1-3)]Man(b1-4)GlcNAc(b1-4)GlcNAc
# In short: as §1
# [25] = molecular target: Gal(b1-3)GlcNAc(b1-3)Gal(b1-3)GlcNAc
# In short: as §1
# [26] = molecular target: Gal(b1-3)GlcNAc(b1-3)Gal(b1-4)Glc
# In short: as §1
# [27] = molecular target: Gal(b1-3)GlcNAc(b1-3)Gal(b1-4)GlcNAc
# In short: as §1
# [28] = molecular target: Gal(b1-3)GlcNAc(b1-3)Gal(b1-4)GlcNAc(b1-6)[Gal(b1-3)GlcNAc(b1-3)]Gal(b1-4)Glc
# In short: as §1
# [29] = molecular target: Gal(b1-3)GlcNAc(b1-3)Gal(b1-4)[Fuc(a1-3)]GlcNAc(b1-6)[Gal(b1-3)GlcNAc(b1-3)]Gal(b1-4)Glc
# In short: as §1
# [30] = molecular target: Gal(b1-3)GlcNAc(b1-3)GalNAc
# In short: as §1
# [31] = molecular target: Gal(b1-3)GlcNAc(b1-6)Gal(b1-4)GlcNAc
# In short: as §1
# [32] = molecular target: Gal(b1-3)GlcNAc(b1-6)GalNAc
# In short: as §1
binder,measurement,setting,value
CIH1 (Colletotrichum higginsianum) (protein) LPQATPTTPTPTSASAAATISATSSPTCSPGPVIDYTVVSGDTLTIISQRFSSGICNIADASGITNPNFLSLGQVLQVPTYVCTPDNTSCLAKEGSDTCVEGGPATHTIVAGDTFFLVAQSLGLDVNALLAANEGVDPLLLQIGDVINIPVC,glycan array binding signal (z-score),Gal(a1-3)Gal(b1-3)GlcNAc,-0.061
same,glycan array binding signal (z-score),[1],-0.062
same,glycan array binding signal (z-score),[2],-0.069
same,glycan array binding signal (z-score),[3],-0.046
same,glycan array binding signal (z-score),[4],-0.063
same,glycan array binding signal (z-score),Gal(a1-3)Gal(b1-4)Glc,-0.076
same,glycan array binding signal (z-score),Gal(a1-3)Gal(b1-4)GlcNAc,-0.069
same,glycan array binding signal (z-score),[5],-0.067
same,glycan array binding signal (z-score),[6],-0.053
same,glycan array binding signal (z-score),[7],-0.064
same,glycan array binding signal (z-score),[8],0.011
same,glycan array binding signal (z-score),Gal(a1-3)GalNAc,-0.072
same,glycan array binding signal (z-score),[9],-0.085
same,glycan array binding signal (z-score),[10],-0.053
same,glycan array binding signal (z-score),Gal(a1-4)Gal(b1-4)Glc,-0.078
same,glycan array binding signal (z-score),Gal(a1-4)Gal(b1-4)GlcNAc,-0.075
same,glycan array binding signal (z-score),[11],-0.06
same,glycan array binding signal (z-score),[12],-0.068
same,glycan array binding signal (z-score),Gal(a1-4)GlcNAc,-0.052
same,glycan array binding signal (z-score),Gal(a1-6)Glc,-0.08
same,glycan array binding signal (z-score),Gal(b1-2)Gal,-0.06
same,glycan array binding signal (z-score),Gal(b1-3)Gal,-0.072
same,glycan array binding signal (z-score),Gal(b1-3)Gal(b1-4)GlcNAc,-0.048
same,glycan array binding signal (z-score),[13],-0.058
same,glycan array binding signal (z-score),Gal(b1-3)GalNAc,-0.072
same,glycan array binding signal (z-score),[14],-0.059
same,glycan array binding signal (z-score),[15],-0.065
same,glycan array binding signal (z-score),[16],-0.071
same,glycan array binding signal (z-score),[17],-0.063
same,glycan array binding signal (z-score),[18],-0.047
same,glycan array binding signal (z-score),Gal(b1-3)GlcNAc,-0.051
same,glycan array binding signal (z-score),[19],-0.07
same,glycan array binding signal (z-score),[20],-0.089
same,glycan array binding signal (z-score),[21],-0.028
same,glycan array binding signal (z-score),[22],-0.06
same,glycan array binding signal (z-score),[23],-0.067
same,glycan array binding signal (z-score),[24],-0.068
same,glycan array binding signal (z-score),[25],-0.076
same,glycan array binding signal (z-score),[26],-0.034
same,glycan array binding signal (z-score),[27],-0.063
same,glycan array binding signal (z-score),[28],-0.047
same,glycan array binding signal (z-score),[29],-0.057
same,glycan array binding signal (z-score),[30],-0.06
same,glycan array binding signal (z-score),[31],-0.064
same,glycan array binding signal (z-score),[32],-0.061
